The record followed here is PubChem BioAssay AID1346428 (National Center for Advancing Translational Sciences (NCATS), 2018).

Each structure is given as a SMILES string. Values joined by “and” are separate entries in the source; they are usually repeats but may differ in a detail not shown here. Equal values may be shown once. The whole screen tested about 48,000 compounds, of which about 1,200 (2.5%) were called active. Inconclusive results (about 2%) are left out.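 Rule for the calls: active = activation of at least 60% and not above a set upper limit (about 1 call in 100 departs from these limits); inconclusive = activation of 40% to 60%, or above that upper limit; inactive = activation under 40%.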 Some of the results follow.

This assay deals with Probable G-protein coupled receptor 32 (Homo sapiens) (UniProt O75388). The assay can be described thus: qHTS for Agonists of Human Resolvin D1 Receptor DRV1. Note: 0% is about no effect. The settings on record: CHO-K1 GPR32 beta-arrestin PathHunter luminescence, 90 min; at 76.9 µM; hits give high values; zero percent set by DMSO-only wells. The method, boiled down: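 Step 1: seed CHO-K1 GPR32 beta-arrestin cells, 2,500/well, overnight at 37 °C. Step 2: add compounds, 90 min at 37 °C. Step 3: detection reagent, 1 h ambient, then luminescence.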
UniProt O75388, sequence (O75388 whole entry, looked up): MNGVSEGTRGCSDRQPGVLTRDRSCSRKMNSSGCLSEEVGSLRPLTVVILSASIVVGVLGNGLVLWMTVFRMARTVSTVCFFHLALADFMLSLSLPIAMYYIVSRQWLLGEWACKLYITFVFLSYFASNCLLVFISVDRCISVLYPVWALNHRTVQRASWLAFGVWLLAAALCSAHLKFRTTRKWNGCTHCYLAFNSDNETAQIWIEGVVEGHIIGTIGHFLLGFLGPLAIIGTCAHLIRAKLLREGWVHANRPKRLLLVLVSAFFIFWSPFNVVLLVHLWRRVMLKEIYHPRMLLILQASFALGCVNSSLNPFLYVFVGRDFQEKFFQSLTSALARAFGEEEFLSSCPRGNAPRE
`O=C(CN1C(=O)C2(SCC(=O)N2c2ccccc2)c2ccccc21)Nc1ccccc1C(F)(F)F` (centres undefined): the activation was inactive: -12.4%. The value for `COc1ccc(S(=O)(=O)N2CCC(C(=O)NC(C)c3ccccc3)CC2)cc1` (centres undefined) was inactive: 23.9%. The figure for `COc1ccc(C(=O)c2cnc3ccc(C)cc3c2S(=O)(=O)c2ccccc2)cc1` is inactive: -36.8%. The value for `Cc1ccc(CN2C(=O)C(O)(CC(=O)c3ccc(C)cc3)c3ccccc32)cc1` (centres undefined) was inactive: -71.8%; that for `O=C(Nc1ccc(Br)cc1)c1cc2nc(-c3ccccc3)cc(-c3ccccc3)n2n1` was inactive: 10.3%.

On to `CCOc1ccc(-c2nnc(SCC(=O)NCc3ccc(Cl)cc3)o2)cc1`, for which the activation was inactive: -5.25%. On to `Cc1ccc(NC(=O)c2cc(S(=O)(=O)NC3CCCCCC3)ccc2F)cc1F`, for which the activation was inactive: -15.6%. The figure for `COc1ccc2[nH]cc(CCN=C(NC(=O)c3cccc(Cl)c3)Nc3nc(C)cc(C)n3)c2c1` is inactive: -5.21%. `COc1ccc(NC(=O)Cn2c(=O)oc3cc(Cl)ccc32)c(OC)c1`: the activation is inactive: -3.04%.

With `Cn1c(=O)oc2cc(S(=O)(=O)N3CCCC(C(=O)NCc4ccccc4Cl)C3)ccc21` (centres undefined), the activation is inactive: 13.5%. On to `Cc1cc(C)c2c(n1)SCC(=O)N2CC(=O)Nc1ccccc1C`, for which the activation was inactive: -13.2%. Consider `CNC(=O)C1CCC(Cn2c(=O)c3sccc3n(CC(=O)NCc3ccc(C)cc3)c2=O)CC1` (centres undefined), for which the activation was inactive: -11.4%.

On to `CCc1ccc(NC(=O)CSc2nc(C)c(C(=O)Nc3ccc(Cl)cc3)c(-c3ccc(OC)cc3)c2C#N)cc1`, for which the activation was inactive: 0.691%. The value for `Cc1ccc(C)c(NC(=O)CCCn2c(C)c3cnn(-c4ccccc4)c(=O)c3c2C)c1` was inactive: -29.2%.

`O=C(CSc1nc2c([nH]c3ccccc32)c(=O)n1-c1ccc(F)cc1)NCC1CCCO1` (centres undefined): the activation is inactive: -44.5%. The figure for `Cc1ccc(C2C(=O)N(C3CCCCCC3)CC(=O)N2C(C)C)cc1` (centres undefined) is inactive: -20.1%; for `Cc1ccccc1C(=O)Nc1sc2c(c1C(=O)O)CCC(C(C)(C)C)C2` (centres undefined) it is inactive: -0.511%; for `O=C(CSc1nc2c([nH]c3ccccc32)c(=O)n1-c1ccccc1)N1CCCc2ccccc21` it is inactive: -14.1%. The value for `CCCCc1nn2c(=O)cc(CN(CC)c3ccccc3)nc2s1` was inactive: 13.7%; that for `COc1ccc(NC(=O)Cn2nc3c(cc2=O)CCCC3)cc1Cl` was inactive: 2.58%; that for `COc1cccc(C(=O)c2cn(CC(=O)Nc3cc(Cl)c(OC)cc3OC)c3nc(C)ccc3c2=O)c1` was inactive: -3.75%.

For `Cc1cccc(NC(=O)c2cc(CN3CCOCC3)on2)c1C`, the activation is inactive: -1.5%. The figure for `Cc1cccc(S(=O)(=O)c2cn(C)c3cc(N4CCCCCC4)c(F)cc3c2=O)c1` is inactive: 2.79%; for `O=C(CSc1ccccc1)N1CCc2c([nH]c3ccccc23)C1c1ccc(Cl)cc1` (centres undefined) it is inactive: -33.7%; for `Cc1ccc(NC(=O)NCCOCCn2c(=O)oc3ccccc32)c(C)c1` it is inactive: -12.7%. The figure for `CC(C)c1ccc(Cc2cn3cc(-c4cc5ccccc5oc4=O)nc3s2)cc1` is inactive: 4.26%. The figure for `COc1cccc(-n2c(SCC(=O)Nc3cccc(C)c3)nc3c([nH]c4ccccc43)c2=O)c1` is inactive: -6.57%; for `O=C(NCc1ccc(Cl)cc1)c1cc2ccc3cccnc3c2[nH]1` it is inactive: 0.618%.

Consider `COc1ccccc1N1CCN(S(=O)(=O)c2ccc(-c3ccno3)cc2OC)CC1`, for which the activation was inactive: -6.94%. The figure for `CC1=C(c2ccc(F)cc2)S(=O)(=O)N=C1N1CCC(C(=O)NCCc2ccccc2)CC1` is inactive: -1.67%. The figure for `Cc1nc(N2CCCC2)ncc1C(=O)NCc1ccc(Cl)cc1` is inactive: 26.4%. The figure for `COc1ccc(OC)c(C2=NS(=O)(=O)N(C)C(C(=O)Nc3ccc(C(C)=O)cc3)=C2)c1` is inactive: -11.8%; for `Cc1ccc(C)c(NC(=O)C2CCN(c3ncnc4c3nc3n4CCCCC3)CC2)c1` it is inactive: -15%. Consider `COc1cc(CN(C(=O)COc2ccc(Cl)cc2)c2ccccn2)cc(OC)c1OC`, for which the activation is inactive: 9.59%. The figure for `CC(C)(C)c1ccc(C(=O)NNc2ncnc3c2cnn3-c2ccc(Cl)cc2)cc1` is inactive: 25.7%; for `Cc1cccc(C)c1NC(=O)NCCCN1CCN(c2ccccc2)CC1` it is inactive: -5.16%.

As for `CCCCN1C(=O)CN(C2CCCCCC2)C(=O)C1c1ccc(OCC)c(OC)c1` (centres undefined), the activation is inactive: -13.6%. The figure for `COCCN(Cc1ccco1)C(=O)Cn1ncc2c([nH]c3ccccc32)c1=O` is inactive: 26.4%; for `Cc1cc2c(cc1S(=O)(=O)CCC(=O)N(C)C1CCCCC1)OCC(=O)N2` it is inactive: 4.65%; for `COc1cccc(NC(=O)CCc2nc(-c3ccc(C(C)(C)C)cc3)no2)c1` it is inactive: 5.49%. Consider `Cc1ccc(-c2nnn3c2nc(NCCc2ccccc2)c2ccccc23)cc1`, for which the activation is inactive: 9.04%. The value for `CN(c1ncnc2c1c(-c1ccccc1)cn2-c1cccc(Cl)c1)C1CCCCC1` was inactive: -34.7%; that for `Cc1cccc(-n2c(=O)c3c(c4cc(C)ccc4n3C)n(C)c2=O)c1` was inactive: -0.0798%. The value for `Cc1ccc(-c2nnc(Nc3cccc(Br)c3)c3ccccc23)cc1S(=O)(=O)N1CCCCC1` was inactive: -3.16%; that for `CCc1ccc(CN(Cc2ccco2)C(=O)COc2ccccc2Cl)cc1` was inactive: -15.6%. The value for `Cc1c(Cl)cccc1NC(=O)N1CCC(CN2CCOCC2)CC1` was inactive: -3.32%; that for `OCc1ccc(Cl)cc1Cl` was inactive: -72%. On to `Cc1ccc(C)c(C(=O)CSc2nc(-c3ccccc3)nc3c2CCCC3)c1`, for which the activation was inactive: 11.7%. The figure for `O=C(c1ccc([N+](=O)[O-])cc1)N(Cc1ccco1)c1ccccn1` is inactive: -1.31%.

With `CC(=O)OCc1cnc(C)c2oc(=O)c(C(=O)Nc3cc(F)ccc3C)cc12`, the activation was inactive: 2.89%.

Regarding `CCOc1ccccc1NC(=O)C1CCCN(c2ncnc3onc(-c4ccc(F)cc4)c23)C1` (centres undefined), the activation was inactive: -12%. The value for `CC(C)C(=O)Nc1nnc(S(=O)(=O)N(C)Cc2ccc(F)cc2)s1` was inactive: -9.2%; that for `COc1ccc(NC(=O)C2CCN(S(=O)(=O)c3cn(C)cn3)CC2)cc1Cl` was inactive: -15.8%; that for `Cc1ccc(NC(=O)CSc2nnc(COc3ccc(Cl)cc3)o2)cc1` was inactive: -9.97%. The figure for `COc1ccc(C2C(C(=O)Nc3ccc(C)cc3C)=C(C)Nc3nc(SC)nn32)cc1OC` (centres undefined) is inactive: -1.97%. For `NC(=O)CN1C(=O)C2(SCC(=O)N2c2cccc(F)c2)c2ccccc21` (centres undefined), the activation is inactive: -10.4%. The value for `CCCCn1c(=O)c2oc3ccccc3c2n(Cc2ccc(OC)cc2)c1=O` was inactive: -5.54%; that for `Cc1cc(C)cc(NC(=O)c2cn3c4c(ccc(Cl)c4c2=O)OC(C)C3)c1` (centres undefined) was inactive: -6.83%. On to `COc1ccc(S(=O)(=O)Nc2ccc3c(c2)sc(=O)n3C)cc1Cl`, for which the activation was inactive: -8.39%. For the compound `COc1ccccc1CNC(=O)c1ccc(-c2nc(CS(=O)c3ccc(C)cc3)c(C)o2)cc1` (centres undefined), the activation is inactive: 23.9%. The value for `Cc1ccc2c(c1)-c1onc(C(=O)N(C)c3cccc(C(F)(F)F)c3)c1CO2` was inactive: 21.8%.

For `Cc1ccc2c(CC(=O)Nc3cccc(C(F)(F)F)c3)coc2c1`, the activation is inactive: 36.4%. The figure for `CC1(C)Cc2c(c(N3CCOCC3)nc3sc(C(=O)Nc4ccc(Cl)cc4)c(N)c23)CO1` is inactive: -9.59%; for `Cc1cccc(NC(=O)CSc2nc(-c3cccc(C)c3)nc3c2Cc2c(CO)cnc(C)c2O3)c1` it is inactive: 16.1%. The figure for `CCOc1ccc(S(=O)(=O)Nc2cccc(-c3ccc(N4CCCC4)nn3)c2)cc1` is inactive: -1.02%; for `CCc1nc2ccc(C(=O)NCc3ccc(OC)c(OC)c3)cc2nc1CC` it is inactive: -13.7%.

Regarding `CCCCOc1ccc(C(=O)Nc2cc(-c3ccc(C)cc3)no2)cc1`, the activation is inactive: 6.74%. The figure for `CCOC(=O)c1sc(N2C(=O)c3oc4ccccc4c(=O)c3C2c2ccc(C(C)(C)C)cc2)nc1C` (centres undefined) is inactive: -3.32%; for `CCOC(=O)COc1ccc(/C=C(\C#N)c2nc3ccc(C)cc3[nH]2)cc1OC` it is inactive: 39%; for `Cc1ccccc1CNC(=O)Cn1c(C)c2cnn(-c3ccccc3)c(=O)c2c1C` it is inactive: -12.3%. The value for `Cc1oc2ncn(CC(C)C)c(=O)c2c1C(=O)NCCc1ccc(Cl)cc1` was inactive: -10.4%; that for `Cc1cccn2c3c(c(=O)nc12)C(c1cccc(F)c1)CC(=O)N3` (centres undefined) was inactive: 3.54%; that for `CCC1CCCCN1Cc1c(O)ccc2c(=O)c(Oc3ccccc3Cl)c(C(F)(F)F)oc12` (centres undefined) was active: 102%. Consider `Cc1ccc(CNC(=O)c2ccc3c(c2)CCN3S(=O)(=O)c2ccccc2)cc1`, for which the activation is inactive: -7.94%.

With `CN1C[C@@H]2C[C@H]1CN2c1cc2c(cc1F)c(=O)c(C(=O)O)cn2C1CC1`, the activation was inactive: -3.51%. As for `O=C(Cn1cnc2nc3c(cc2c1=O)CCCC3)N1CCN(c2cccc(C(F)(F)F)c2)CC1`, the activation is inactive: -5.78%.

`CCOc1ccc(OCC)c(NS(=O)(=O)c2c(C)[nH]c(=O)[nH]c2=O)c1`: the activation was inactive: -12.5%. The figure for `Cc1ccc(C)c(NC(=O)CSc2c(C)cnc3c2c(=O)n(C)c(=O)n3C)c1` is inactive: 10.5%.

As to `N[C@@H](Cc1c[nH]c2ccc(O)cc12)C(=O)O`, the activation is inactive: -18.6% and inactive: 14.8%. The figure for `COc1ccc(CCNC(=O)c2csc3c2CCCCC3)c(OC)c1` is inactive: 0.748%; for `COc1ccc(Cn2c(C(=O)O)c(CNC3CCCC3)c3ccc(C)cc32)cc1` it is inactive: 6.1%. The figure for `CC(=O)c1ccc(S(=O)(=O)Nc2ccc(-c3ccc(N4CCCCC4)nn3)cc2)cc1` is inactive: -9.6%.

On to `Cc1ccc(N(C)C(=O)CC(C)S(=O)(=O)c2ccc3c(c2)NC(=O)CO3)cc1` (centres undefined), for which the activation is inactive: 30.1%.

With `CCc1ccc(NC(=O)Cn2ccn(-c3ccc(OC)cc3)c(=O)c2=O)cc1`, the activation is inactive: -45.9%.
